Hit rate of the full screen: of about 52,000 compounds, about 4,300 (8.3%) were called active. No stated cut-off is given here; in the data, active means survival mostly below about 52% (no sharp cut-off); inactive means mostly above about 56%. The list shows a part of the results.
These compounds were tested on DeltatarO mutant (assay: S. aureus survival, RN4220 and DeltatarO strains – OD600, teichoic acid synthesis inhibitors, primary screen (AID 463173)). Conditions: S. aureus RN4220 wild type/DeltatarO growth, OD600, 18 h, active compounds read low, screened at 18.75 µg/mL (by protocol).

SMILES | survival
CCCCn1cc(S(=O)(=O)c2ccc(C)c(C)c2)c(=O)c2cc(F)c(N3CCCC(C)C3)cc21 (stereo not drawn) | inactive: 89%
COc1ccc(OC)c(CNC(=O)c2nn(-c3ccc(OC)c(Cl)c3)c(=O)c3c2c2ccccc2n3C)c1 | inactive: 131%
CCOc1ccc2nc(N3CCCC(C(=O)Nc4c(C)cccc4C)C3)sc2c1 (stereo not drawn) | inactive: 82%
CC(=O)Nc1ccc(C(=O)CSc2nnnn2C(C)C)cc1 | inactive: 93%
O=C(C1CCN(S(=O)(=O)c2ccc(Br)s2)CC1)N1CCN(c2cccc(Cl)c2)CC1 | inactive: 76%
COc1cc(C(=O)NCCCc2nc3ccccc3n2CC(C)C)cc(OC)c1OC | inactive: 62%
Cc1ccc(Sc2c(C)nn(C(=O)COc3ccccc3Br)c2C)cc1 | inactive: 88%
CCOc1ccc(CCNC(=O)c2sc3nc4n(c(=O)c3c2C)CCCC4)cc1OCC | inactive: 103%
Cc1ccc2[nH]c(CSc3nnc(NC(=O)COc4ccccc4)s3)cc(=O)c2c1 | inactive: 82%
CCOC(=O)c1c(NC(=O)c2ccc(S(=O)(=O)N3CCC(C)CC3)cc2)sc2c1CCN(C)C2 | inactive: 113%
NC(=O)c1c(NC(=O)c2nc(SCc3ccccc3F)ncc2Cl)sc2c1CCCC2 | inactive: 53%
CCN(CC)c1ccc(NS(=O)(=O)c2ccc(-c3cnc(C4CC4)o3)cc2)c(C)c1 | inactive: 84%
O=C1NCCN(Cc2ccc(F)cc2)C1=O | inactive: 83%
CCCn1c(SCc2nc(-c3ccc(OC)cc3OC)no2)nnc1-c1ccc(Cl)cc1 | inactive: 53%
CCC1CN(C(=O)N2CCC(C(=O)NCCc3ccc(Cl)cc3)CC2)c2ccccc2O1 (stereo not drawn) | inactive: 60%
COc1ccc(NC(=O)Cn2nnc(C(=O)Nc3ccc(F)c(Cl)c3)c2N)cc1OC | active: 37%
Cc1ccc(NC(=O)Cn2cc(C(=O)C3CC3)c3ccccc32)cc1 | inactive: 148%
COc1ccc(-c2noc(CN(C(=O)COc3cc(C)c(Br)c(C)c3)C(C)C)n2)cc1 | active: 31%
Cn1c(SCc2ccc(F)cc2)nc2ccc(C(=O)NCc3ccc(Cl)cc3)cc21 | inactive: 50%
CCOc1ccc(N(C(=O)CC(C)C)S(=O)(=O)c2ccc3c(c2)oc(=O)n3C)cc1 | inactive: 46%
Cc1ccc(-c2nc3scc(CCNC(=O)Cc4ccc(Cl)cc4)n3n2)cc1 | inactive: 85%
COc1ccc(CCNC(=O)CCCn2c(=O)c3ccccc3n(Cc3cccc(Cl)c3)c2=O)cc1OC | inactive: 72%

SMILES | survival
CCC(=O)Nc1c(C(=O)N2CCN(c3ccc(F)cc3)CC2)oc2ccccc12 | inactive: 70%
CCOc1ccc(CC(=O)NCCc2csc(-c3ccc(C)cc3)n2)cc1 | inactive: 88%
COc1ccc(CCNS(=O)(=O)c2ccc3c(c2)CC(C)N3C(=O)C2CCC2)cc1OC (stereo not drawn) | inactive: 68%
O=C(/C=C/c1ccccc1)N1CCN(CCN2C(=O)C3C4C=CC(C4)C3C2=O)CC1 (stereo not drawn) | inactive: 70%
COc1ccc(S(=O)(=O)n2nc(C)c(S(=O)(=O)N3CCC(C)CC3)c2C)cc1C | inactive: 90%
N#C/C(=C/c1ccc(N2CCCCC2)o1)C(=O)NCCc1c[nH]c2ccccc12 | inactive: 76%
CCOC(=O)c1ccc(NC(=O)c2c(NC(C)=O)sc3c2CCC(C)C3)cc1 (stereo not drawn) | inactive: 47%
CCOc1ccc(CCNC(=O)c2ccc3c(Cl)c4c(nc3c2)CCCC4)cc1 | inactive: 59%
O=S(=O)(NCCc1nnc2ccc(SCc3ccc(Cl)cc3Cl)nn12)c1ccccc1 | active: 37%
Cc1ccc(CNC(=O)c2ccc3nc(N4CCCCC4)sc3c2)cc1 | inactive: 89%
COc1cccc(C(c2sc3nc(-c4ccco4)nn3c2O)N2CCC(O)CC2)c1 (stereo not drawn) | inactive: 120%
CCOc1ccccc1NC(=O)c1sc2nc3n(c(=O)c2c1C)CCCCC3 | inactive: 45%
COCCOC(=O)c1c(C)n(S(=O)(=O)c2ccc(C)cc2)c2ccc(NS(=O)(=O)c3ccc(C)cc3)cc12 | inactive: 66%
COC(=O)c1scc(-c2ccc(C)cc2)c1S(=O)(=O)Nc1cc(Cl)ccc1C | inactive: 88%
Cn1c(=O)c(=O)n(C)c2cc(N3CCOCC3)c(NS(=O)(=O)c3ccc(Cl)cc3)cc21 | active: -1%
Cc1nn(Cc2ccc(F)cc2)c(C)c1NC(=O)c1cc(CC(C)C)on1 | inactive: 52%
CCc1ccc(S(=O)(=O)c2cn(CC(=O)Nc3ccc(C)cc3)c3ccccc3c2=O)cc1 | inactive: 73%
NC(N)=Nc1nc2cc(Cl)ccc2o1 | inactive: 69%
COc1ccccc1NCc1cccn1-c1nnc(N2CCOCC2)s1 | inactive: 94%
Cc1oc2ncn(C)c(=O)c2c1C(=O)NC(C)c1ccccc1 (stereo not drawn) | inactive: 109%
O=c1[nH]c2ccccc2cc1CNc1ccccc1 | inactive: 94%
O=C(CSC1=Nc2ccccc2N=C(c2ccc(F)cc2)C1)NCc1ccc(F)cc1 | inactive: 75%

SMILES | survival
Cc1ccc(C)c(CN2C(=O)CSc3ccc(C(=O)NCc4ccc(F)cc4)cc32)c1 | active: 46%
Cc1ccc(CSCc2ccc(C(=O)NCCc3ccc(Cl)cc3)o2)cc1 | inactive: 78%
CC(C)Oc1ccc(CNC(=O)CN2C(=O)CCc3cc(S(=O)(=O)N4CCCCC4)ccc32)cc1 | inactive: 87%
Cc1cc(C)cc(N2C(=O)CSC23C(=O)N(CC(=O)NCCc2ccccc2)c2ccccc23)c1 (stereo not drawn) | inactive: 71%
CC(=O)Oc1ccc(C(=O)NC2CCSC2=O)cc1 (stereo not drawn) | inactive: 72%
CN(C(=O)c1ccc2c(c1)N(Cc1cccc(Cl)c1)C(=O)c1ccccc1S2=O)C1CCCCC1 (stereo not drawn) | inactive: 101%
CCOC(=O)C1=C(CS(=O)(=O)c2ccc(C)cc2)NC(=O)NC1c1ccc(C(C)C)cc1 (stereo not drawn) | inactive: 81%
COc1ccc(NC(=O)CCS(=O)(=O)c2cccc3nonc23)cc1Cl | inactive: 68%
O=C(Nc1cc2c(cc1C(=O)c1ccccc1Cl)OCCO2)c1ccc(Br)cc1 | inactive: 66%
Cc1nc2c(-c3ccccc3)c(C)nn2c(C)c1CCC(=O)NCc1ccccc1Cl | inactive: 56%
Cc1ccc(CSc2nc3cccnc3n2Cc2ccc(C(=O)NCCc3ccccc3)cc2)cc1 | inactive: 70%
CCC(=O)N1c2nc(-c3ccco3)nn2C2(CCCCC2)[C@@H]2CCCC[C@@H]21 | inactive: 111%
O=C(c1cccc(Br)c1)N1CCN(Cc2cc(=O)n3nc(-c4ccccc4)sc3n2)CC1 | inactive: 82%
COc1ccc(N2CCN(C(CNC(=O)C(=O)NCCCN(C)C)c3cccnc3)CC2)cc1 (stereo not drawn) | inactive: 57%
CCOc1c(Cl)cc(Cl)cc1CNCCSc1nnnn1C | inactive: 123%
O=C(CN1C2=NCCN2c2ccccc21)C12CC3CC(CC(C3)C1)C2 | inactive: 117%
O=S(=O)(CCc1nc2ccccc2s1)c1ccc(Cl)cc1 | inactive: 95%
O=C(CCC(=O)OCC(=O)c1ccc(Cl)cc1)Nc1ccc(Oc2ccccc2)cc1 | inactive: 125%
CCCn1cc(S(=O)(=O)c2cc(C)ccc2C)c(=O)c2cc(F)c(N3CCOCC3)cc21 | inactive: 102%
Cn1c(C(=O)N(Cc2ccccc2)Cc2cccs2)cc2sccc21 | inactive: 100%
COC(=O)c1c(SCC(=O)Nc2cc(C)cc(C)c2)[nH]c2ccccc2c1=O | active: 39%
CCc1ccc2occ(CC(=O)Nc3c(C(=O)Nc4ccc(C)cc4)oc4ccccc34)c2c1 | inactive: 105%

SMILES | survival
Cc1ccc(-n2nnnc2CNC(=O)c2ccccc2S(C)(=O)=O)cc1C | inactive: 92%
CCOC(=O)c1[nH]c(C)c(Cc2ccc(OCC)cc2)c1C | inactive: 82%
COc1ccc(-c2cn3nc(N4CCCC(C(=O)Nc5ccc(C)c(C)c5)C4)sc3n2)cc1 (stereo not drawn) | inactive: 66%
FC(F)(F)c1cc(-c2ccccc2)nc2cc(-c3ccc(Br)cc3)nn12 | active: 42%
Cc1nnc(SCc2ccc(Cl)cc2)c2cc3occc3n12 | active: 28%
Cc1cccc(N2CCN(c3cc(C)nc4c(-c5ccc(Cl)cc5)c(C)nn34)CC2C)c1 (stereo not drawn) | inactive: 68%
CCOc1ccc(NC(=O)NCCCN2CCN(c3ccc(F)cc3)CC2)cc1 | inactive: 76%
O=C(O)CCC1(CCC(=O)O)CCCCC1=O | inactive: 88%
CCCNc1ncnc2onc(C)c12 | inactive: 80%
Cc1ccc(C(=O)n2nc(C)c(S(=O)(=O)N3CCOCC3)c2C)cc1 | inactive: 77%
Cc1ccc(CSc2nc(-c3cccs3)ccc2C#N)cc1 | active: 25%
CC(C)c1cnc2c(c1SCC(=O)Nc1ccccc1C(F)(F)F)c(=O)n(C)c(=O)n2C | inactive: 68%
COc1cccc(-c2nn(C)c3sc(C(=O)NCCc4ccc(Cl)cc4)cc23)c1 | inactive: 87%
O=C(NCc1ccco1)C(c1ccccc1)N(Cc1ccco1)C(=O)Cn1nnc2ccccc21 (stereo not drawn) | inactive: 93%
Cc1cc(S(=O)(=O)Nc2ccc(-c3ccc(N4CCCCC4)nn3)cc2)c(C)cc1Cl | inactive: 118%
CCOc1ccc(NC(=O)CSc2nnc3scc(-c4ccc(Cl)cc4)n23)cc1 | inactive: 48%
CCOc1cccc2cc(-c3nc4ccc(C(=O)O)cc4[nH]3)c(=O)oc12 | inactive: 69%
COc1cc2oc(=O)c(CC(=O)N3CCCCC3)c(C)c2cc1Cl | inactive: 64%
COc1ccc(C)cc1S(=O)(=O)N1CCN(c2cccc(Cl)c2)CC1 | inactive: 59%
Cc1cccc(-n2c3nc(=O)[nH]c(=O)c-3cc3c(Cl)cccc32)c1C | inactive: 130%
CC(=O)N1CCc2c(sc3c2c(=O)n(-c2ccccc2)c(=O)n3CC(=O)Nc2ccccc2C)C1 | inactive: 71%
Cc1ccccc1S(=O)(=O)Cc1ccc(C(=O)NC2CCCCC2)o1 | inactive: 116%

Source: PubChem BioAssay AID463173 (ICCB-Longwood Screening Facility, Harvard Medical School, 2010)
